Experimental findings from the supplement of paper PMC8728848 are described below.

The list shows a part of the results.

What all share (test): glycan array binding signal (z-score within array); higher = stronger binding
Settings in all cases: glycan notation: IUPAC condensed, linker removed

Test [1] concerns the target Neu5Gc(a2-8)Neu5Gc(a2-3)Gal(b1-4)GlcNAc(b1-3)Gal(b1-4)GlcNAc. The gist of the method: (§1)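 From the Consortium for Functional Glycomics database, 3228 arrays were curated, keeping only those whose protein sequence was available. Binding is given as a within-array Z-score averaged across arrays sharing a protein sequence and across linkers. Negative Z-scores can be read as non-binding.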

The target of test [2] is Neu5Gc(a2-8)Neu5Gc(a2-6)Gal(b1-4)GlcNAc. The method in brief:
as §1

For test [3], the target named is Neu5Gc(b2-6)Gal(b1-4)GlcNAc. The gist of the method: as §1

B1: Sebin1 (Coprinopsis cinerea), A8PEE3 (protein)
chain: MTSPFYAHIHNVQDDNTWRFTLIFANRATADEWWRAISEAPANTSIAKSITRVTPQYYTHDVNIWNIWNFFADGNIKSISERFRGRLFIVLENDRGGRGITVIPPVPIVDHVSGNWFYIRSKTAPHLFWYYDERRSSIYASKEKRTRFKISIRNPSSQTPKNAIMINTDDVTIHIKENLYVGVDNNLGHIIPTRAYRTFKFGELESGAIAGFDVVENIEERCSSTFDGASLSISGPDSSSPGEPWELV
For B1, the “glycan array binding signal (z-score)” value in test [1] was 0.124; in test [2], -0.823; in test [3] it was 0.6.
